The full ranking holds about 33,000 sequences; the median of “E-score (-0.5 to 0.5)” is about -0.035, and the highest 2% start at about 0.34. This is one part of the list.
The sequences below were run against T1, Mot3 (UniProt P54785) (assay: PBM E-score (8-mer binding enrichment) (E-score (-0.5 to 0.5)); higher = stronger / more preferred TF binding; most listed sequences are background and not binding sites). Conditions: protein concentration: 200 nM; construct: GST-full length.
T1 sequence: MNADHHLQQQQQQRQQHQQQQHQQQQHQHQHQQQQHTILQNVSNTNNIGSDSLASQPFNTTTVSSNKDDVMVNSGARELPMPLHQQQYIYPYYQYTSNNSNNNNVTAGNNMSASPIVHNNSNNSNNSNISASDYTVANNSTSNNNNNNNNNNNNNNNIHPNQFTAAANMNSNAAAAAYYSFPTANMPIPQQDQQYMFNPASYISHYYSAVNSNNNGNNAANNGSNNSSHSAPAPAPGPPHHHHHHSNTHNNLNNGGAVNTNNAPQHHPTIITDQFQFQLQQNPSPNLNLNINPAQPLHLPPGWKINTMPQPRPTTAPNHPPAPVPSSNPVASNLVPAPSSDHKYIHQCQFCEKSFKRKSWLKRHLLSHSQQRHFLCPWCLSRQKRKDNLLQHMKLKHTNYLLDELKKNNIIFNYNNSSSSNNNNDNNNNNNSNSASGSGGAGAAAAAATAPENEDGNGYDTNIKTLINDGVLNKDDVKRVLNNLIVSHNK
In short: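 Universal all-10-mer Agilent arrays, fresh or stripped once, were converted to double-stranded form by primer extension. GST-tagged yeast transcription factors from PURExpress in vitro transcription/translation, full-length or DNA-binding domain only, were applied at about 100-200 nM and detected with fluorescent anti-GST. After masliner normalisation, the Universal PBM Analysis Suite scored each ungapped eight-base word together with its reverse complement by E-score.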

Sequence | PBM E-score
AAGAATCG | 0.038
GACAACGC | 0.0171
ACTTACCC | 0.0416
ACGTGAGC | -0.0873
AGACCGTG | 0.06
GCCTACAC | 0.344
CTGCGGGA | -0.182
ATTCGTGG | -0.0319
GCATCGAA | -0.204
AATCTACT | -0.0291
AGCTCGCC | -0.115
GTCTTGCA | -0.00912
GCATCACA | 0.0593
ACGCGTCA | 0.253
GTCTGACA | 0.00096
CCGACCGC | -0.327
TAGGACGA | -0.0724
GAATCCGC | -0.0662
TAACATCA | 0.25
ACCCAGGG | -0.216
CGAGTCAA | -0.127
CGGCGCCG | -0.179

Sequence | PBM E-score
TAAACTCA | 0.0852
AGCCACAC | -0.161
AAACTCAT | 0.0282
CGCAGATC | -0.158
CGACTACG | -0.0338
CTGATACA | 0.0291
CATGAGCA | -0.121
AAGTCTCC | -0.0176
CAATTGTG | -0.0094
ATACCGTC | -0.0241
CTAGACTC | -0.37
ATGCATGA | 0.0899
AAGCCTAA | 0.129
AACACCGA | 0.0814
AAGGGGTA | -0.053
AGGTGCAT | 0.0335
CAGCTGTC | -0.0706
GCTACCAC | -0.216
TGCGTGAA | 0.23
CGAAACAG | -0.182
AACTCTCC | -0.163
AGACATGC | 0.0904

Sequence | PBM E-score
CGCTATGA | 0.0422
ATGCTAGG | 0.0854
AGTCGGAT | -0.141
AGTAGTTA | 0.105
GTAAAACA | 0.29
CTCGAGAA | 0.0391
CGGCATCA | -0.0726
GCTGGTAA | -0.112
AGAGGTAG | 0.0368
TATAAAAA | 0.249
CAATGAGC | -0.234
AAGTCATT | -0.0638
CGAGCCCA | -0.188
AGTCGCCC | -0.278
ACCGCTAC | -0.303
CGGCGTCC | -0.218
TGATCCAA | -0.071
AATGACGT | 0.0289
CATCCGCG | 0.0938
ATAGCTAT | -0.0712
AAGTACTA | 0.185
AAGTGGCC | -0.114

Sequence | PBM E-score
ATTGCGTA | 0.217
CTTGAAGA | -0.116
ACAGCTTA | 0.0818
ATAAGGAT | 0.168
CGTAATGA | 0.25
TAATATGA | 0.036
CGAGGGTA | -0.213
ACTATACA | 0.124
AGAGATGA | -0.128
AGCAGAAA | -0.06
ATGCTCAG | 0.15
CATTAGCG | -0.278
AGCGCATG | -0.0299
CTCAATAC | 0.0854
GTTCATGA | 0.103
ATGAAGCA | -0.00353
ACTTTGAC | 0.127
TAGTCCCA | -0.21
ACTAGAAA | 0.122
AACCCAAC | -0.0432

— the supplement of paper PMC3334620
